The test has as its system MIWI (PIWIL1) piRISC loaded with L1MC piRNA (30 nt). Kind of test: pre-steady-state target cleavage rate (min^-1); MIWI and MILI are mouse PIWI proteins and EfPiwi is from a freshwater sponge; tags in brackets are library labels; higher = faster piRNA-guided slicing of the target. To be noted: guide: L1MC piRNA 5'p-UAACUAAAUACUAUGCAAGCUGUAGGUCCU
In a few lines: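 Reactions were run for 0–8 or 0–960 min at 33 °C in HEPES–potassium acetate buffer, combining 1 nM active affinity-purified piRISC with one synthetic guide, […] transcribed, DNA-blocked target RNA library and, in some cases, 500 nM GTSF1 partner protein. Sequencing of uncleaved targets followed, with normalisation to depth and to weakly complementary targets. Three trials were pooled, k3 was capped at 0.0001 min^-1, and the pre-steady-state cleavage rate was taken from a burst-and-steady-state fit.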

[1] abbreviates: auxiliary factor: 500 nM mouse GTSF1.
The mark [2] stands for this setting: auxiliary factor: none (no GTSF1).

± gives the standard deviation. The list shows a part of the results, in another mix than the full data.
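Note: 1 nM active piRISC with 0.1 nM target library at 33 °C single turnover.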

Consider UCGACCUACAGCUUGCAUAGUAUUAAGAAA, for which the “pre-steady-state target cleavage rate” value is, setting by setting: under setting [1], 0.387 ± 0.044; under setting [2], 0.00277 ± 0.0027.

UCCUGGAUGUGCUUGGAUAGAAUUUAGUUA: the “pre-steady-state target cleavage rate” value runs as follows: under setting [1], 0.0175 ± 0.0088; under setting [2], 0.00609 ± 0.003.

Take UCCUGCUACAGCUUGCAUAGUAUUUAGAAA: the “pre-steady-state target cleavage rate” value under setting [1] is 0.381 ± 0.048 and the “pre-steady-state target cleavage rate” value under setting [2] was determined as 0.00361 ± 0.0026.

For the sequence UCCUGGAUCACUUGCAUAGUAUUUAGUUA, the “pre-steady-state target cleavage rate” value came out at 0.431 ± 0.038 under setting [1] and 0.00994 ± 0.0033 under setting [2].

In the case of UCCUGGAUGAGCUUGCUUACUAUUUAGUUA, the “pre-steady-state target cleavage rate” value under setting [1] is 0.0559 ± 0.005 and the “pre-steady-state target cleavage rate” value under setting [2] came to 0.0077 ± 0.0023.

AGGACCUACAGCAUGCUUAGUAUUUAGUUA: the “pre-steady-state target cleavage rate” value by setting is: under setting [1], 0.977 ± 0.058; under setting [2], 0.0155 ± 0.0029.

Take UCCUGGUACAAGCUUGCAUAGUAUUUAGUUA: the “pre-steady-state target cleavage rate” value under setting [1] was found to be 0.474 ± 0.045 and the “pre-steady-state target cleavage rate” value under setting [2] amounted to 0.0473 ± 0.0088.

Consider UCCUCCUAGAGCUUGCAUAGUAUUUAGAAA, for which the “pre-steady-state target cleavage rate” value by setting is: under setting [1], 0.194 ± 0.032; under setting [2], 0.00351 ± 0.0022.

For the sequence UCCUGGAUCAGCUUGCAUAGAAUUUAGAAA, the “pre-steady-state target cleavage rate” value runs as follows: under setting [1], 0.148 ± 0.028; under setting [2], 0.00575 ± 0.0031.

For UGGACCUACAGCUUGCAUAGUAUAAUGUAA, the “pre-steady-state target cleavage rate” value by setting is: under setting [1], 0.109 ± 0.024; under setting [2], 0.00483 ± 0.0028.

On to UCCUGGUUCAGCUAGCAUAGUAUUUAGUUA, for which the “pre-steady-state target cleavage rate” value worked out at 0.872 ± 0.045 under setting [1] and 0.0169 ± 0.004 under setting [2].

With UCGUGCUACAGCUUGCAUAGUAUUUAGAAA, the “pre-steady-state target cleavage rate” value came out at 0.318 ± 0.037 under setting [1] and 0.00463 ± 0.0016 under setting [2].

Take UGGACCUACAGCUUGCAUAGUUAUUAGUUA: the “pre-steady-state target cleavage rate” value runs as follows: under setting [1], 0.146 ± 0.013; under setting [2], 0.0145 ± 0.0034.

Take UCGACCUAGUCCUUGCAUAGUAUUUAGAAA: the “pre-steady-state target cleavage rate” value is 0.325 ± 0.051 under setting [1] and 0.00262 ± 0.0015 under setting [2].

For the sequence AGGACCUACAGCUUGCAUAGUUUUAAGUUA, the “pre-steady-state target cleavage rate” value is, setting by setting: under setting [1], 0.254 ± 0.024; under setting [2], 0.0231 ± 0.007.

For UCGACCUAGAGCUUGCAUAGUAUUUAGUUA, the “pre-steady-state target cleavage rate” value was 1.07 ± 0.072 under setting [1] and 0.0649 ± 0.011 under setting [2].

On to UCCUGGAACAGCUUGCAUGGUAUUUAGUUA, for which the “pre-steady-state target cleavage rate” value was 1.22 ± 0.058 under setting [1] and 0.074 ± 0.02 under setting [2].

Turning to UCCUGGAUCAGCUUGCAUAAUAUUUAGUUA, the “pre-steady-state target cleavage rate” value runs as follows: under setting [1], 0.472 ± 0.035; under setting [2], 0.0283 ± 0.0062.

Turning to UCCUGGAUCAGCUUGCAUAGUUUUUAGUUA, the “pre-steady-state target cleavage rate” value runs as follows: under setting [1], 0.266 ± 0.018; under setting [2], 0.0393 ± 0.01.

Turning to UCCUGGAACAGCUUGCAUACUAUUAAGUUA, the “pre-steady-state target cleavage rate” value stood at 0.124 ± 0.021 under setting [1] and 0.00995 ± 0.0032 under setting [2].

As to UCCUGGAUGAGCUUGCAUAGUAAUUAGUAA, the “pre-steady-state target cleavage rate” value under setting [1] stood at 0.337 ± 0.053 and the “pre-steady-state target cleavage rate” value under setting [2] worked out at 0.00981 ± 0.004.

For the sequence AGGUCCUACAGGUUGCAUAGUAUUUAGUUA, the “pre-steady-state target cleavage rate” value was 0.992 ± 0.074 under setting [1] and 0.052 ± 0.011 under setting [2].

On to UCGUCCUACAGCUUGCAUAGUAUAUAGUUA, for which the “pre-steady-state target cleavage rate” value reads like this: under setting [1], 0.637 ± 0.026; under setting [2], 0.0248 ± 0.0039.

As for UCCACCUACAGCUUGCAGAGUAUUUAGUUA, the “pre-steady-state target cleavage rate” value under setting [1] amounted to 0.75 ± 0.039 and the “pre-steady-state target cleavage rate” value under setting [2] was 0.023 ± 0.0052.

Consider UCCUGGAUCAGCUUGCAUAGUAUUUAUUUA, for which the “pre-steady-state target cleavage rate” value was found to be 0.333 ± 0.037 under setting [1] and 0.0217 ± 0.0055 under setting [2].

On to UCCUGGAUGACCUUGCAUAGUAUAUAGUUA, for which the “pre-steady-state target cleavage rate” value runs as follows: under setting [1], 0.0296 ± 0.011; under setting [2], 0.00883 ± 0.0043.

On to UCCUCCUACAGCUUGGAUAGUAAUUAGUUA, for which the “pre-steady-state target cleavage rate” value is, setting by setting: under setting [1], 0.805 ± 0.042; under setting [2], 0.0182 ± 0.0039.

For the sequence AGGACCUACAGCUUGCAUAGUAUAUAGUAA, the “pre-steady-state target cleavage rate” value was determined as 0.493 ± 0.058 under setting [1] and 0.0216 ± 0.0048 under setting [2].

On to UCCACCUACAGCUGUGCAUAGUAUUUAGUUA, for which the “pre-steady-state target cleavage rate” value runs as follows: under setting [1], 1.02 ± 0.044; under setting [2], 0.0243 ± 0.0047.

UGGACCUACACGAUGCAUAGUAUUUAGUUA: the “pre-steady-state target cleavage rate” value under setting [1] turned out to be 0.78 ± 0.051 and the “pre-steady-state target cleavage rate” value under setting [2] turned out to be 0.00583 ± 0.0026.

Consider UGGAGCUACAGCUUGCAUAGUAUUUAGAAA, for which the “pre-steady-state target cleavage rate” value runs as follows: under setting [1], 0.369 ± 0.032; under setting [2], 0.0159 ± 0.0038.

Take UCGUCCUACAGCUUGCAUAGUAUUUAGUAA: the “pre-steady-state target cleavage rate” value is, setting by setting: under setting [1], 0.82 ± 0.037; under setting [2], 0.0372 ± 0.0076.

As to UCCUGGUACAGCUGUGCAUAGUAUUUAGUUA, the “pre-steady-state target cleavage rate” value under setting [1] worked out at 0.688 ± 0.047 and the “pre-steady-state target cleavage rate” value under setting [2] came to 0.0171 ± 0.0052.

On to UCCACCUACAGCUUGCAUAGUAUUAUAGUUA, for which the “pre-steady-state target cleavage rate” value turned out to be 0.699 ± 0.047 under setting [1] and 0.0142 ± 0.0026 under setting [2].

Take AGGACGUACAGCUUGCAUAGUAAUUAGUUA: the “pre-steady-state target cleavage rate” value under setting [1] turned out to be 0.806 ± 0.062 and the “pre-steady-state target cleavage rate” value under setting [2] amounted to 0.0345 ± 0.0099.

Turning to AGGACCAACAGCUUGCAUAGUAUUUUGUUA, the “pre-steady-state target cleavage rate” value reads like this: under setting [1], 0.896 ± 0.073; under setting [2], 0.0712 ± 0.015.

Turning to UCCUGCUACAGCUUGCUAGUAUUUAGUUA, the “pre-steady-state target cleavage rate” value reads like this: under setting [1], 0.0392 ± 0.013; under setting [2], 0.00304 ± 0.0024.

For the sequence UCCUGGAUGUACUUGCAUAGUAUUUAGUUA, the “pre-steady-state target cleavage rate” value is, setting by setting: under setting [1], 0.187 ± 0.015; under setting [2], 0.026 ± 0.0066.

For UGGACCUACAGCUUGGAUAGUAAUUAGUUA, the “pre-steady-state target cleavage rate” value is 0.73 ± 0.041 under setting [1] and 0.0223 ± 0.0058 under setting [2].

Regarding UCCUGGUACAGCUUGCAUAGUAAAUAGUUA, the “pre-steady-state target cleavage rate” value under setting [1] was 0.459 ± 0.07 and the “pre-steady-state target cleavage rate” value under setting [2] was determined as 0.00644 ± 0.0031.

As to UGGACCUACACCUUCCAUAGUAUUUAGUUA, the “pre-steady-state target cleavage rate” value reads like this: under setting [1], 0.012 ± 0.0024; under setting [2], 0.00279 ± 0.0019.

As for UCCUGCUUCAGCUUGCAUAGUAUUUAGAAA, the “pre-steady-state target cleavage rate” value under setting [1] came to 0.396 ± 0.047 and the “pre-steady-state target cleavage rate” value under setting [2] turned out to be 0.00506 ± 0.0026.

For UCCUGGAACAGCUUGCAUAGAAUAUAGUUA, the “pre-steady-state target cleavage rate” value came out at 0.163 ± 0.02 under setting [1] and 0.00581 ± 0.0038 under setting [2].

Consider UCCACCUACUGCUUGCAUUGUAUUUAGUUA, for which the “pre-steady-state target cleavage rate” value by setting is: under setting [1], 0.743 ± 0.025; under setting [2], 0.0287 ± 0.0065.

For the sequence UCCUGCUACAGGUUGGAUAGUAUUUAGUUA, the “pre-steady-state target cleavage rate” value by setting is: under setting [1], 0.916 ± 0.092; under setting [2], 0.0193 ± 0.0033.

As for UCCUGGAUGUGCUUGCAAAGUAUUUAGAUA, the “pre-steady-state target cleavage rate” value runs as follows: under setting [1], 0.0429 ± 0.0083; under setting [2], 0.00745 ± 0.0027.

For the sequence ACGACCUACAGCUUGCAUAGUAUUUUGUUA, the “pre-steady-state target cleavage rate” value is, setting by setting: under setting [1], 0.912 ± 0.039; under setting [2], 0.0603 ± 0.009.

With AGGACUUACAGCUUGCAUAGUAUUUAGUUA, the “pre-steady-state target cleavage rate” value under setting [1] was found to be 1.39 ± 0.064 and the “pre-steady-state target cleavage rate” value under setting [2] came out at 0.0831 ± 0.012.

Take UCCACCUACAGCUUGCAUAGUUUUUAGUUA: the “pre-steady-state target cleavage rate” value runs as follows: under setting [1], 0.342 ± 0.025; under setting [2], 0.0227 ± 0.0043.

Turning to UGGACCUACUGCUUGCAUAGUAUAUAGUUA, the “pre-steady-state target cleavage rate” value by setting is: under setting [1], 0.71 ± 0.048; under setting [2], 0.0265 ± 0.006.

Regarding AGGACCUACACCAUGCAUAGUAUUUAGUUA, the “pre-steady-state target cleavage rate” value was 0.846 ± 0.039 under setting [1] and 0.0249 ± 0.0046 under setting [2].

Take UCCUGGUAGCAGCUUGCAUAGUAUUUAGUUA: the “pre-steady-state target cleavage rate” value under setting [1] was 0.999 ± 0.046 and the “pre-steady-state target cleavage rate” value under setting [2] amounted to 0.0676 ± 0.014.

As for AGGACCUACUGCUUGCAUAGUAUUUUGUUA, the “pre-steady-state target cleavage rate” value by setting is: under setting [1], 0.913 ± 0.063; under setting [2], 0.0554 ± 0.009.

For the sequence UCCUGGAACAGCUAGCAUAGUAUAUAGUUA, the “pre-steady-state target cleavage rate” value worked out at 0.422 ± 0.04 under setting [1] and 0.0104 ± 0.0033 under setting [2].

In the case of UCGACCUACAGCUACCAUAGUAUUUAGUUA, the “pre-steady-state target cleavage rate” value reads like this: under setting [1], 0.559 ± 0.035; under setting [2], 0.00309 ± 0.0028.

Values taken from the supplement of paper PMC10338343.
